According to the supplement of paper PMC3334620:
The full ranking holds about 33,000 sequences; the median of “E-score (-0.5 to 0.5)” is about -0.032, and the highest 2% start at about 0.36. The list shows a part of the results.

Each sequence was assayed against T1, Sko1 (UniProt Q02100) (assay: PBM E-score (8-mer binding enrichment) (E-score (-0.5 to 0.5)); higher = stronger / more preferred TF binding; most listed sequences are background and not binding sites). Conditions: protein concentration: 200 nM; construct: GST-full length.
T1 sequence: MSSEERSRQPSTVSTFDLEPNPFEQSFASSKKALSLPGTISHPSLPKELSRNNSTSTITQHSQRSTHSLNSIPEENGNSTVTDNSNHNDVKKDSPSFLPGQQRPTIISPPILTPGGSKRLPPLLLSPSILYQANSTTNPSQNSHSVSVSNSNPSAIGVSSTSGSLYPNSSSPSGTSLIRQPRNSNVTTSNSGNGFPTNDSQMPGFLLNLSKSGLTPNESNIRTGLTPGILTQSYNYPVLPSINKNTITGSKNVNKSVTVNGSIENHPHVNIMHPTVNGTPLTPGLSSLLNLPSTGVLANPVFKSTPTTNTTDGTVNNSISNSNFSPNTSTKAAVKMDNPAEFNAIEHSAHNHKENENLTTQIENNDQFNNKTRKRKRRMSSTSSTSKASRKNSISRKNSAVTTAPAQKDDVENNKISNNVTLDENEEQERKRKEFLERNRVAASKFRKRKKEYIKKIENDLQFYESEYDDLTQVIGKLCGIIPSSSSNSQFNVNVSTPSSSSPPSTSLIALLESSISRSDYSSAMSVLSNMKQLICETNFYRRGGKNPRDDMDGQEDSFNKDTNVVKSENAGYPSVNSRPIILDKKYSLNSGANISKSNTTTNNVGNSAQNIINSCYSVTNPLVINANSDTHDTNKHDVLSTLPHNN
Summary of the method: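 Full-length yeast transcription factors or their DNA-binding domains, GST-tagged and expressed with PURExpress, were applied at about 100-200 nM to universal all-10-mer Agilent arrays. These arrays had been made double-stranded by primer extension on fresh or once-stripped slides. Detection used fluorescent anti-GST, normalisation used masliner, and E-scores for ungapped eight-base words pooled with reverse complements came from the Universal PBM Analysis Suite.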

Sequence	PBM E-score
AGCCAGAA	-0.162
CCTCGGAG	-0.269
AACTGAAG	0.0972
AGACAGTC	-0.136
ACTGGGCG	-0.267
ACGGTGCA	-0.0207
CTCGGGAC	-0.22
TACTGTGA	-0.00209
GGGACACC	-0.374
ACGTTGTA	0.394
CAAGTGCC	-0.277
TACAAAGA	0.134
CCGGACCG	-0.17
ACCGATAG	-0.131
AGCAATCC	-0.149
CATCAGAG	0.0221
CCGGCGGA	-0.16
GCTTGAAC	0.176
CGTCCGCC	-0.0968
GATGCGGA	-0.124
GTCTCTCA	-0.084
ATAATACC	0.138
CCTGGAAC	-0.0359
GGGTGCAC	-0.0658
CCAGATCA	0.0904

Sequence	PBM E-score
AGGTCAAC	0.0141
ATCGTCGA	-0.106
GCTAGAAC	-0.115
CCTGGCCA	-0.18
AAGGATGG	0.00772
GGGCTGCA	-0.176
GGCTGTAC	-0.0592
ATCGACCC	-0.114
GGTAATGA	0.115
CAAATTAG	0.104
AAATGTTA	0.218
AAGAGGGC	-0.201
ACTGTCCC	-0.247
TAGTCGCA	-0.145
CGAATGCG	0.101
CTCAGCCA	-0.0969
GCCAAAAC	0.0138
CACACCCG	-0.189
TAATAAAA	0.302
CAGGGCCA	-0.32
CTGATTTC	0.105
AACGCTAT	0.12
ACGATCCT	-0.064
ATCTACGA	0.0563
AAGTTATG	0.231

Sequence	PBM E-score
ACTGGGAA	0.0438
GAAGTATC	0.0123
ACGTGAGT	0.331
CAACCAGG	-0.155
AATCGCTC	-0.231
CCGGTAGA	-0.192
ACCTATAT	0.257
TACGACCA	0.0862
AGAGCACA	-0.166
AGCTCCAG	-0.228
CCGCGATA	-0.0398
CATTTTAA	0.0361
GCACGAGA	-0.177
GCCGGTTA	-0.155
CAATTAGA	0.128
CACGTGAC	0.387
CATCATGG	0.132
GCTTTTGA	-0.197
CCATCGGC	-0.301
CTCTTCAC	-0.203
AATAATCA	0.194
AGAGAACT	-0.0485
CCGGTGTC	-0.192
ACTTGGTG	-0.268
ACAGCGTG	0.0478

Sequence	PBM E-score
GACTTCAA	-0.0809
AGCCCGAA	-0.264
CAAGTCGA	-0.0679
CGCACGAA	0.165
AAGAGCAG	-0.143
GGTTTATA	0.0242
GATCGTCA	0.321
ACTCGGAT	0.05
TCGCTCCA	0.0407
GCACAACA	0.0216
AAGCTATG	0.0671
CCCCGCGG	-0.257
AGGACGCA	-0.117
GGTCGCTA	-0.183
ACCACTGC	-0.196
ATATCAGA	-0.00647
TCCTCCGA	-0.278
GTAGATAA	0.217
TCGCCGAA	0.0579
CGTGTTTC	0.246
ACACAAGT	0.108
TAAGTCCA	0.0254
GACGCCCC	-0.148
ATTCTCTA	0.132
CCAGATGC	-0.0851

Sequence	PBM E-score
CCAAAGAC	-0.098
ATCGCCAG	-0.186
ATAACCAG	0.159
AATGAGAT	0.199
AAGCGTAG	-0.0528
GCTAGACC	-0.17
ATGCAGGA	-0.157
GTTACGTA	0.483
CATAGAAA	0.177
AACGATGT	0.135
CAGGCATG	-0.0423
AGCGATCC	-0.148
AGCTCCCT	-0.288
GCTCTGGA	0.0591
CAGCGACG	0.0901
GCGGGATA	-0.181
AGGAGACG	-0.0804
CGCAAGAC	0.101
CCACACAG	-0.208
GCCATATA	0.0528
ATACATAA	0.305
GGTAAATA	0.0846
CCAATTCA	0.0713
CTTAAGTA	0.102
AGTTACCA	0.0186

Sequence	PBM E-score
AGCATGGC	-0.179
CATGTGCA	0.0248
ACGGAGGG	-0.24
CCTGTACA	-0.0613
AACGGCTC	-0.0851
AGCTGTCA	0.0211
CTCCACTC	-0.27
CGCCTTAG	-0.113
AACGCCCA	-0.0022
CAGAAACC	-0.101
CGTTCGGA	-0.163
CACAGGGA	-0.221
CAAGGCTG	-0.229
GGCAGTCA	-0.136
CGTGCGTC	0.388
CATTCACC	-0.0121
AACGTACA	0.303
CGGCCGGC	-0.313
GGTAACTA	0.0515
CAGGAAAG	-0.158
CCTAAAAG	-0.163
ACGCGTGA	0.32
ACTGTGGC	-0.239
CGTTGATC	0.152
AAAGATGT	0.119

Sequence	PBM E-score
CCTAGCCC	-0.221
GAGGAGCC	-0.21
CACAGGCA	0.00128
AACGGAGA	-0.108
ATATCGCG	0.12
ACTCCAGG	-0.0919
GCTAGTAA	-0.00339
CAATCTAA	0.0428
AGTGTATA	0.165
GAGTTCGC	-0.23
CGCGTGAG	0.224
AGCGAGCT	0.114
AGGTTCAC	-0.0397
GACCGGTA	-0.351
AAACTACT	0.0951
AAAAGCAT	-0.00843
AATTCCGC	-0.0973
GATTCAAC	0.0452
GTGCGGAA	0.0182
ATGACCAC	0.0672
GGACCATA	-0.148
CAGTCTGC	-0.155
AGGGACAC	-0.0953
GGGGCTTA	-0.302
ACTTCACG	0.0936

Sequence	PBM E-score
ACGATAGC	0.221
AAACACCG	-0.0565
AGCGACGC	-0.0658
ACTTTAGA	0.00666
ACGCATTC	0.229
CACAGATA	-0.0967
GGATCACC	-0.181
CTTAATTC	0.0412
GACAGCGA	-0.178
ACCTATTG	-0.00471
GGAATCCC	-0.266
GGTTATTA	0.177
ATCACCCA	0.0215
GTACGACA	0.326
AGCACCCG	-0.105
GCGGCTCC	-0.379
ACGAATAT	0.316
CGCTTAGC	-0.251
CCGTGGCA	-0.24
AGCTCTAT	-0.12
AGGTAAAC	0.172
CATATCCG	0.0206
GAATCCAC	0.0158
CGTGCAAG	0.0462
CAACGTGC	0.141

Sequence	PBM E-score
ATATAGCG	0.168
CTCCGTCC	-0.263
AGCACCAT	-0.293
GTGGAAAC	0.0657
CATAAACA	0.287
ACAGGTCT	-0.16
GAGTACAC	0.0088
CTAGGTTA	-0.0237
CGTTTAGC	0.231
AAATTGAG	-0.0473
ATTAGCGG	-0.14
ATAACCGC	-0.0457
AACCCTTG	-0.205
ATCAGGCG	-0.0176
AATGCACA	0.0421
AGCTAATA	0.136
CATCGGAA	0.153
CGAATGCC	-0.201
CCTCATCG	-0.0839
